Hit rate of the full screen: of about 220,000 compounds, about 5,700 (2.6%) were called active. Inconclusive means that the source gave no clear call. Such entries were picked first, then a sample of the others. Calls follow the shape of the dose curve; as a rule, active = well fitted inhibition curve with a large enough effect; inconclusive = small, poorly fitted or top-dose-only effect; inactive = no such curve, though single readings can be large or run the other way. A potency beside an inconclusive call is a rough fit, not a confirmed value.
What follows are compounds tested against Lysine-specific demethylase 5B (Homo sapiens) (UniProt Q9UGL1) (assay: Primary screen for KDM5B Histone Demethylases FDH-coupled qHTS). Details: FDH-coupled NADH fluorescence (FDH is formaldehyde dehydrogenase); activity change, negative = inhibition: at 57.7 µM (top of the series) unless noted.
Chain of UniProt Q9UGL1 (Q9UGL1 whole entry, looked up): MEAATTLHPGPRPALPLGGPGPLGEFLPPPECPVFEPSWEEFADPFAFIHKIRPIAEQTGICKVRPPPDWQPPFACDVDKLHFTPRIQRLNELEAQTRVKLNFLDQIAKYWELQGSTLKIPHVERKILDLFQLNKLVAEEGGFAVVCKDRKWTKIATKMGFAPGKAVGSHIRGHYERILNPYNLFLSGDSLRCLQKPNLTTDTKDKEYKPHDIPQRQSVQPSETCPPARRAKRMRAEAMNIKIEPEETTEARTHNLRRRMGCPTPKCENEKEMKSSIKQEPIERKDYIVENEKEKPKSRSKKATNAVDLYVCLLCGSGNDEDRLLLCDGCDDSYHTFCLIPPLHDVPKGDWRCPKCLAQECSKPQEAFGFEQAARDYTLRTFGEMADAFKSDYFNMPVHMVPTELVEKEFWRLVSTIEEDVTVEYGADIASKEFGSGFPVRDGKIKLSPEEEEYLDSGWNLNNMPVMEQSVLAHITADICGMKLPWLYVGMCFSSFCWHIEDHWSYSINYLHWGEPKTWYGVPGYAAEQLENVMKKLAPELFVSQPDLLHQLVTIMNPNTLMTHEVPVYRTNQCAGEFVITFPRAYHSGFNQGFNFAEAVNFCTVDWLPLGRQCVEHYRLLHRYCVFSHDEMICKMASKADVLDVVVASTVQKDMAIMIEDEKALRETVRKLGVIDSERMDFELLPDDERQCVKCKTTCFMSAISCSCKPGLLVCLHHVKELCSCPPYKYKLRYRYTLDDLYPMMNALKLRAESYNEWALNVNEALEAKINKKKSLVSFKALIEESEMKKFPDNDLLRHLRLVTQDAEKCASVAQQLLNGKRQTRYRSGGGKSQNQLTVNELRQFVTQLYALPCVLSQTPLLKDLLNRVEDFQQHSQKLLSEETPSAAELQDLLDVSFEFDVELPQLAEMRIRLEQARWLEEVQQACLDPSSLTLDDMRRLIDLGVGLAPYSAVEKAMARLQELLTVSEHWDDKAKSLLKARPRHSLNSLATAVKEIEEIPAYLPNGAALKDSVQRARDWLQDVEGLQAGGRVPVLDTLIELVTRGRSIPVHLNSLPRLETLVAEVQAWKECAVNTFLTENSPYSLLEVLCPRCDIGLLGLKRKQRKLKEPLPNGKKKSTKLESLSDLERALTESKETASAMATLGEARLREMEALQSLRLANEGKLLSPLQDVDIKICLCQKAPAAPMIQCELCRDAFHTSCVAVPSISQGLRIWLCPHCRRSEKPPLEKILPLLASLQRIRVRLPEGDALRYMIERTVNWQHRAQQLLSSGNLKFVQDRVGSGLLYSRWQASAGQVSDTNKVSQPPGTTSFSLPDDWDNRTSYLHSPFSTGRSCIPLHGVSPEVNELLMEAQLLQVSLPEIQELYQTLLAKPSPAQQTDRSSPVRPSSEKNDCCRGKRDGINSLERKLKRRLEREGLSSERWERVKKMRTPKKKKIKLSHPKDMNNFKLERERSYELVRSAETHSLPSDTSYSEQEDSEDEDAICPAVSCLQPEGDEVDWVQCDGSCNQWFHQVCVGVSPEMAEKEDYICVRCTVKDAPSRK
In short: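 Coupled FDH/NAD⁺ fluorescence readout. KDM5BΔAP 200 nM final; compound titration, 10 min RT preincubation; substrate mix 12.5 µM H3K4me3, 25 µM 2-OG, 50 µM Fe(II), 100 µM ascorbate, 0.25 mM NAD⁺, 0.25 U/mL FDH; ΔRFU over 30 min.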
Also: nearly all actives have a fitted effect of over 70% in size.
For activity change, negative = inhibition in this document: 0% is about no effect.
Potency is read from the fitted curve at half-maximal effect; tags tell the direction and shape of the fitted curve.

Structure (SMILES)	Potency	activity change, negative = inhibition
COc1ccc(NC(=O)CN2C(=O)c3cccnc3Sc3ccccc32)cc1OC	inconclusive: 28.2 µM [inhibitor, partial curve, poor fit]	–
COCC1CN(Cc2cccc3[nH]ccc23)CC12CCNCC2 (stereo not drawn)	inconclusive: 17.8 µM [inhibitor, single point]	–
CC(C)NC(=O)C1CCCN(c2nc3ncccc3o2)C1 (stereo not drawn)	active: 20 µM	–
CC(C)(C)OC(=O)NC(Cc1ccccc1)C(=O)Nc1ccccc1 (stereo not drawn)	–	inactive: -11.1%
Cc1cc(N2CCCCC2)nc2ccc(NC(=O)CCC(=O)N3CCN(c4ccccc4)CC3)cc12	inconclusive: 31.6 µM [inhibitor, partial curve, poor fit]	–
Cc1cc(C(C)(C)C)cc(C)c1CCNC(=O)c1n[nH]c(=O)c2ccccc12	–	inactive: 12.2%
O=C(CSCc1ccc(F)cc1)N1CCc2c([nH]c3ccccc23)C1c1ccc(Cl)cc1 (stereo not drawn)	inconclusive: 28.2 µM [inhibitor, single point]	–
O=C(Cc1ccc2c(c1)OCO2)N1CCNc2cnc(Nc3cccc(F)c3)nc2C1	active: 31.6 µM	–
CNC(=O)C1CCN(C(C)C(=O)NCc2ccccc2Cl)CC1 (stereo not drawn)	–	inactive: 15.6%
COc1cc(C(=O)Nc2ccccc2-c2nc(-c3ccc(C)cc3)no2)cc(OC)c1OC	inconclusive: 39.8 µM [inhibitor, single point]	–
Cc1ccc(N(CC(=O)N2CCN(C(c3ccccc3)c3ccccc3)CC2)S(C)(=O)=O)cc1	–	inactive: 21.1%
O=C(CCc1c[nH]c2ccccc12)N1CCC(C(=O)N2CCCCCC2)CC1	–	inactive: 15.5%
NNC(=S)Nc1ccc(Br)cc1	–	inactive: -23.2%
COCCNC(=O)C1(C)CN(Cc2ccccc2)Cc2ccc(NCC(C)C)nc21 (stereo not drawn)	inconclusive: 25.1 µM [inhibitor, partial curve, poor fit]	–
O=C(Cn1cnc2c(Cl)cc(Cl)cc2c1=O)N(C1CCCC1)C1CCS(=O)(=O)C1 (stereo not drawn)	–	inactive: 11.5%
O=C(Oc1ccc(/C=N/NC(=O)c2ccccn2)cc1)c1cccc(F)c1	inconclusive: 25.1 µM [inhibitor, single point]	–
Cc1nc(-c2ccccc2F)sc1C(=O)N1CCCC(C(=O)O)C1 (stereo not drawn)	–	inactive: -9.84%
CC1=C(C(=O)Nc2ccccc2)C(c2cccc(Cl)c2Cl)NC(=S)N1 (stereo not drawn)	inconclusive: 8.91 µM [inhibitor, partial curve, poor fit]	–
CCN(CC)S(=O)(=O)c1ccc(NC(=O)CNC2CCCCC2)cc1	inconclusive: 22.4 µM [inhibitor, single point]	–
Cc1ccccc1-c1cccc(C(=O)N(C)Cc2ncc[nH]2)c1	–	inactive: -13.3%
Cn1nc(C2CCCN2)c2c(C(=O)NC3CC3)cc(C3CC3)nc21 (stereo not drawn)	inconclusive: 79.4 µM [inhibitor, partial curve]	–
CN(C(=O)CCc1c[nH]c2ccccc12)C1CCCC1	–	inactive: 10.4%
O=C(Nc1ccc(Cl)cc1)C(NS(=O)(=O)c1cccs1)c1ccccc1 (stereo not drawn)	inconclusive: 22.4 µM [inhibitor, partial curve, poor fit]	–

Structure (SMILES)	Potency	activity change, negative = inhibition
CNC(=O)c1noc(CN2CCCC(CCc3ccccc3F)C2)n1 (stereo not drawn)	inconclusive: 5.01 µM [inhibitor, partial curve, poor fit]	–
CC1(C(=O)NCC2CC2)CCCc2cnc(NCc3ccccc3)nc21 (stereo not drawn)	active: 35.5 µM	–
COc1ccc(Nc2cc(Cl)ccc2C(=O)O)cn1	–	inactive: -24.1%
CC(C)(C)NC(=O)N1CCCOCCNC(=O)[C@@H]2CCC[C@@H]21	–	inactive: 19.9%
O=C(O)c1ccc(Cc2ccccc2)o1	–	inactive: 4.81%
CC(C)CCNc1nc2ccccc2nc1NS(=O)(=O)c1ccc(F)cc1	inconclusive: 1.78 µM [inhibitor, full curve, poor fit]	–
CCCOc1c(Cl)cc(C(=O)N(Cc2sccc2C)C2CCS(=O)(=O)C2)cc1Cl (stereo not drawn)	–	inactive: 4.64%
COc1ccc(OC)c(NC(=O)Cn2c(=O)cc(-c3ccccc3)c3c(C)nn(C)c32)c1	inconclusive: 28.2 µM [inhibitor, partial curve, poor fit]	–
COc1ccccc1-c1ccc(CN2CCN(c3cc(Cl)ncn3)C(=O)C2)cc1	inconclusive: 25.1 µM [inhibitor, single point]	–
CN(C)C(=O)CO[C@H]1COCCN(Cc2ccccn2)C1	inconclusive: 31.6 µM [inhibitor, partial curve]	–
O=C(c1ccn[nH]1)N1CCN(Cc2cnn3cccnc23)CC(O)C1 (stereo not drawn)	inconclusive: 8.91 µM [inhibitor, partial curve]	–
Cc1cccc(N2CCN(C(=O)CS(=O)(=O)Cc3nc(-c4ccccc4C)oc3C)CC2C)c1 (stereo not drawn)	inconclusive: 39.8 µM [inhibitor, single point]	–
COc1ccc(-n2nc(C)c([C@@H]3C=C[C@@H](NCc4ccc(N(C)C)cc4)C3)c2C)cc1	inconclusive: 25.1 µM [inhibitor, partial curve]	–
Cn1cccc(C(=O)N2CCC3(CC2)CN(CCOc2ccccc2)C(=O)O3)c1=O	–	inactive: 8.37%
CO[C@@H]1CO[C@H]2[C@@H]1OC[C@@H]2NC(=S)Nc1ccc(Cl)cc1	inconclusive: 31.6 µM [inhibitor, single point]	–
CCN(CC)C(=O)c1cccc(NC(=O)c2cc(=O)c3cc(C)ccc3o2)c1	–	inactive: 3.48%
CC(C)c1noc(-c2cccn3c(CNC(=O)CC4CCCCC4)nnc23)n1	inconclusive: 15.8 µM [inhibitor, partial curve, poor fit]	–
CC(=O)c1ccc(N2CCN(C(=O)c3noc4c3CCc3sccc3-4)CC2)cc1	inconclusive: 25.1 µM [inhibitor, partial curve, poor fit]	–
COc1ccc(Cn2c(SCc3ccc(C(=O)NC(C)c4ccccc4)cc3)nc3cccnc32)cc1 (stereo not drawn)	inconclusive: 31.6 µM [inhibitor, partial curve, poor fit]	–
Cc1cc(NC(=O)CCNS(=O)(=O)c2cccc3nsnc23)ccc1Br	inconclusive: 3.98 µM [inhibitor, partial curve, poor fit]	–
O=C(CN1CCOCC1)N/N=C/c1ccc(-c2ccc(Br)cc2)o1	inconclusive: 39.8 µM [inhibitor, partial curve, poor fit]	–
Cc1ccc(-c2cc(C(=O)N3CCC4(CC(=O)NC4=O)C3)n[nH]2)o1 (stereo not drawn)	–	inactive: -8.31%
COc1ccc(-n2cc(CN3C[C@@H](C)O[C@@H](C)C3)c(-c3cccc(F)c3)n2)cc1	inconclusive: 28.2 µM [inhibitor, partial curve, poor fit]	–

Structure (SMILES)	Potency	activity change, negative = inhibition
Cn1cc(CN(C(=O)c2ccc3nc(-c4ccccc4)cn3c2)C2CC2)cn1	inconclusive: 35.5 µM [inhibitor, single point]	–
Cc1cc(=O)oc2c(C)c(OCc3nc(-c4ccc(Cl)cc4)no3)ccc12	inconclusive: 25.1 µM [inhibitor, partial curve, poor fit]	–
O=C(c1cc(C2CC2)nc2onc(C3CCCN3)c12)N1CCOCC1 (stereo not drawn)	inconclusive: 56.2 µM [inhibitor, partial curve, poor fit]	–
N#Cc1cccc(C(=O)N[C@H]2[C@H](O)[C@H](O)C[C@@H]2c2cccnc2)c1	–	inactive: -12.2% [at 86.2 µM]
CC(C)CN1CCC(O)(c2csc(CN3CCOCC3)n2)CC1	–	inactive: -12.5% [at 86.2 µM]
Cc1cccc(-n2nc(C)c(C(=O)Nc3cc(C)ccc3C)c2-n2cccc2)c1	inconclusive: 39.8 µM [inhibitor, single point]	–
O=C1COc2ccc(N3CCOCC3)nc2CN1Cc1ccc(F)cc1	inconclusive: 31.6 µM [inhibitor, partial curve]	–
O=C(O)CCCNc1cc(N2CCN(C(=O)c3ccco3)CC2)c2noc3c2c1C(=O)c1ccccc1-3	inconclusive: 14.1 µM [inhibitor, partial curve, poor fit]	–
O=C(c1cccc2[nH]ccc12)N1CCC(n2cc(-c3nc(-c4ccccc4)no3)nn2)C1 (stereo not drawn)	active: 25.1 µM	–
O=C(NCc1ccccc1Cl)c1ccc2oc(=O)n(Cc3ccccc3)c2c1	–	inactive: -9.18%
Cc1ccc(-c2cc(N3CCC(CNC(=O)c4ccc5nc[nH]c5c4)CC3)n[nH]2)cc1	–	inactive: -3.11%
N#Cc1ccc(CNC(=O)[C@@H]2Cc3nc[nH]c3CN2Cc2cc3ccccc3o2)cc1	inconclusive: 31.6 µM [inhibitor, partial curve]	–
Cc1cc(C)n(-c2nc3ccccc3nc2N2CCN(c3cccc(C(F)(F)F)c3)CC2)n1	inconclusive: 39.8 µM [inhibitor, single point]	–
O=C(O)c1ccccc1-c1ncc(-c2ccc(F)cc2)o1	inconclusive: 22.4 µM [inhibitor, partial curve, poor fit]	–
COc1ccc(NC(=O)CC2NCCNC2=O)c(OC)c1 (stereo not drawn)	inconclusive: 28.2 µM [inhibitor, single point]	–
Cc1ncoc1C(=O)NCc1cc(Cl)cc2c(C)c(-c3ccccc3)[nH]c12	active: 35.5 µM	–
Cc1cc2nc(CO[C@H]3CN(C4CCC4)C[C@H]3F)[nH]c2cc1C	inconclusive: 28.2 µM [inhibitor, partial curve]	–
CCOC(=O)c1c(NC(=O)C2c3ccccc3Oc3ccccc32)sc(C)c1C	inconclusive: 31.6 µM [inhibitor, partial curve, poor fit]	–
O=C(O)CCC(=O)N1N=C(c2ccsc2)CC1c1ccccc1 (stereo not drawn)	–	inactive: 12.4%
COc1cc([N+](=O)[O-])ccc1NC(=S)Nn1cnnc1	inconclusive: 39.8 µM [inhibitor, single point]	–
O=C(Nc1cccc(-c2ccc(N3CCCC3)nn2)c1)Nc1c(F)cccc1F	inconclusive: 22.4 µM [inhibitor, partial curve]	–
O=C(CCCn1c(=O)c2cccn2c2ccccc21)NCCc1ccc(Cl)cc1	inconclusive: 31.6 µM [inhibitor, single point]	–

From PubChem BioAssay AID1347165 (National Center for Advancing Translational Sciences (NCATS), 2019)
